Publication PMC4336329 (PLoS ONE, 2015)
The whole screen tested about 310,000 compounds, of which about 14,000 (4.5%) showed an effect of 50% or more. The effect is printed as a negative number. The list shows a part of the results.

target: human ether-à-go-go-related gene (hERG) potassium channel (human, UniProt Q12809); test: primary screen, population patch clamp on CHO cells stably expressing hERG
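Note: peak tail current of the secondary pulse compared with the same well before compound.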

Sequence of human ether-à-go-go-related gene (hERG) potassium channel (Q12809 whole entry, looked up): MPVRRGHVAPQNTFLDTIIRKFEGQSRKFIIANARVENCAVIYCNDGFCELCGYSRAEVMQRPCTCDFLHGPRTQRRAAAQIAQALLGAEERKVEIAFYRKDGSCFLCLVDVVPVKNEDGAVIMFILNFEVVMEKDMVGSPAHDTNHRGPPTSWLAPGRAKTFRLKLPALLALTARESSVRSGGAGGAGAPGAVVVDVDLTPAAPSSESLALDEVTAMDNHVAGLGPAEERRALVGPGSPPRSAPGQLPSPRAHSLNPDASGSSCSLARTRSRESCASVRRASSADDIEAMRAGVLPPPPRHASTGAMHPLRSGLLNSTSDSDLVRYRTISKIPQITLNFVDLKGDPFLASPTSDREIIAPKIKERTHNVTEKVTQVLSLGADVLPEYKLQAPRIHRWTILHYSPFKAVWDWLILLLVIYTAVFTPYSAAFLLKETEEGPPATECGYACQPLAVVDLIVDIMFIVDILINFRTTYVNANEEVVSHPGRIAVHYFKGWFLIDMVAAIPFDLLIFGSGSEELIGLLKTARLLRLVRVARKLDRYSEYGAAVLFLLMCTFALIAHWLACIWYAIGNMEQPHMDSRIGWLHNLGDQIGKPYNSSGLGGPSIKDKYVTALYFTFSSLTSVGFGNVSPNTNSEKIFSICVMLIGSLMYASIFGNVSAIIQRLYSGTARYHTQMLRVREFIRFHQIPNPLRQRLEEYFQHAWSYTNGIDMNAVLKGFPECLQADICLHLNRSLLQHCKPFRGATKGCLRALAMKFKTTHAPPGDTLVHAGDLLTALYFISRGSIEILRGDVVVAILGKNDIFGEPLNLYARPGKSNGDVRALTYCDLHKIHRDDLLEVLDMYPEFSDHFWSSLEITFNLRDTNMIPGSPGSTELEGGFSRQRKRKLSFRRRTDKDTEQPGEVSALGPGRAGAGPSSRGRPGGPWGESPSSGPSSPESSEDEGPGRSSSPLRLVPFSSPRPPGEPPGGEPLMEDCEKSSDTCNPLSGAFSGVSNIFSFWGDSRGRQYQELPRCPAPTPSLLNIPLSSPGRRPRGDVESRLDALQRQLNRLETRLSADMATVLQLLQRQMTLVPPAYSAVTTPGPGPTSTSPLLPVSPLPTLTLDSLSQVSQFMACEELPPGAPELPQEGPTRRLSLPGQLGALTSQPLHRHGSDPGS

SMILES | hERG current change (%, negative = inhibition) at 10uM [%]
CCOc1ccc2nc(NS(=O)(=O)c3ccc(NC(C)=O)cc3)sc2c1 | -8.55
CCc1ccccc1NC(=O)[C@@H]1CCC(=O)N1C1OC(=O)c2c1ccc(OC)c2OC (some centres unmarked) | 1.29
Cc1ccc(C)c(-c2ccc(=O)n(Cc3cccc(Br)c3)n2)c1 | 10.7
CCOC(=O)NC(Nc1nnc(SCC)s1)(C(F)(F)F)C(F)(F)F | 20
Cc1ccc(C(=O)CSC2=C(C#N)C(c3ccco3)CC(=O)N2)c(C)c1 (centres unmarked) | -43.6
O=C(NNC(=O)c1n[nH]c(=O)c2ccccc12)c1ccc(Br)cc1 | -14.1
CC(C)CCNC(=O)c1ccc(CS(=O)(=O)Cc2ccccc2F)o1 | -10.5
O=C(NN1C(=O)NC2(CCCCC2)C1=O)c1ccc(-c2ccc(Cl)cc2)o1 | -27.2
CCc1cc2cc(C)cc(C)c2[nH]c1=S | 7.61
Cc1ccc(N(C)/N=C/c2ccc(Cl)cc2Cl)nn1 | 19.9
Cc1ccccc1CN1C(=O)C(O)(CC(=O)c2ccncc2)c2ccccc21 (centres unmarked) | 14
COc1ccc(Cc2nnc(NC(=O)C3CCN(C(=O)c4ccco4)CC3)s2)cc1 | -8.48
COc1ccc(N2C(=O)Cc3ccccc3C2=O)cc1 | 24.7
CC(C)CCNc1nc2c(cc1C#N)COC(C)(C)C2 | -7.61
COc1ccc(CNC(=O)c2cc3c(=O)n4ccccc4nc3n(Cc3cccnc3)c2=N)cc1 | -58.6
CC1(C)CC(=O)c2sc(NC(=O)CCS(=O)(=O)c3ccccc3)nc2C1 | -5.11
CC1Cc2cc(/C(O)=C3\C(=O)C(=O)N(CCN4CCOCC4)C3c3ccccc3F)ccc2O1 (centres unmarked) | 3.69
COc1cccc(CN(C)C(=O)C2CCN(S(=O)(=O)c3cccs3)CC2)c1OC | -12.1
Cc1onc(-c2c(Cl)cccc2Cl)c1C(=O)NCCc1ccc(S(N)(=O)=O)cc1 | -21.6
COc1c(C)cc(C(=O)C2CCCN(C(=O)c3snnc3C)C2)cc1C (centres unmarked) | -4.57
Cc1onc(-c2ccccc2)c1C(=O)Nc1sc2c(c1C#N)CCC(C)C2 (centres unmarked) | 6.74
NS(=O)(=O)c1ccc(CNC(=S)Nc2ccc(Cl)c(Cl)c2)cc1 | 4.6

SMILES | hERG current change (%, negative = inhibition) at 10uM [%]
COc1ccc(CNCc2cc3c(C(C)(C)C)nn(-c4ccccc4)c3[nH]c2=O)cc1 | -24
Fc1ccc([C@@H]2CCNC[C@H]2COc2ccc3c(c2)OCO3)cc1.O=C(O)/C=C\C(=O)O | -37.1
CCOC(=O)CCCNC(=O)COC(=O)CCC(=O)c1ccc(F)cc1 | 3.21
CN(CCOC(=O)c1ccc2c(c1)OCCO2)Cc1ccccc1.Cl | -15.1
CCOC(=O)C1CCN(S(=O)(=O)C(F)(F)c2nc3ccccc3s2)CC1 | -19.8
CC1(/[N+]([O-])=C/c2cccc(Cl)c2)CCCCC1=O (centres unmarked) | 4.74
COc1cc(/C=C2\CC(C(C)(C)C)C/C(=C\c3cc(OC)c(OC)c(OC)c3)C2=O)cc(OC)c1OC (centres unmarked) | 15.3
CCCOc1ccc(Oc2cc(C)nc(SC)n2)nn1 | 11.3
CN(Cc1ccccc1)S(=O)(=O)c1ccc2c(c1)OCCO2 | -21
Cc1cc(OCc2nc3ccccc3s2)ccc1N | -1.17
COc1cccc(N2C(=O)CC(N3CCC(c4nc5ccccc5[nH]4)CC3)C2=O)c1 (centres unmarked) | -12.7
Cc1ccc(S(=O)(=O)N(C)C)cc1NC(=O)c1cc(C(C)(C)C)nn1Cc1ccccc1 | 6.36
[O-]/[N+](=C\c1ccccc1)[C@@H]1CCCC[C@@H]1/[N+]([O-])=C/c1ccccc1 | 10.7
Cc1oc(-c2ccc(-c3ccccc3)cc2)nc1CN(CCO)C(C)C | -44.1
Cc1c2c(nc3nc4ccccc4n13)CC(C)(C)CC2=O | -34.7
CCOc1ccc(-c2noc(-c3cccnc3)n2)cc1OCC | 13.7
Cc1cc(N2CCNCC2)nc2ccccc12 | -7.37
CCC(C(=O)NC(C)(C)C)N(Cc1ccco1)C(=O)CNS(=O)(=O)c1ccc(OC)cc1 (centres unmarked) | 7.49
O=C(CO/N=C/c1cccc([N+](=O)[O-])c1)NC1CCCCC1 | -14.4
CCOc1ccc(C(=O)O)cn1 | 20.6
O=C(NCC(c1ccco1)N1CCN(c2ccccc2)CC1)C(=O)NC1CC1 (centres unmarked) | 3.4
Cc1cccc(Oc2ccc(S(=O)(=O)N3CCCCC3)cc2NC(=O)C2=COCCO2)c1 | -48.5
